Results as given in PubChem BioAssay AID1159614 (National Center for Advancing Translational Sciences (NCATS), 2016).
The campaign covered roughly 45,000 compounds. About 65 (0.1%) were called active. The call rests on the fitted dose curve; in most records, active means well fitted activation curve with a large enough effect; inconclusive means small, poorly fitted or top-dose-only effect; inactive means no such curve, though single readings can be large or run the other way. The list shows a part of the results.

These compounds were tested against Galactocerebrosidase (Homo sapiens) (UniProt P54803) (assay: A Novel Cell-Based Assay to Identify Small Molecules for B -Galactocerebrosidase). Conditions: 145M-Twi-hGALC-G270D cells, HMU-beta-Gal fluorescence, 48 h; series mostly up to 57.5 µM; activation: at the top concentration.
Summary of the method: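 qHTS, 1536-well; 145M-Twi-hGALC-G270D cells (WT line also made) in DMEM/F12 + 10% FBS; compound incubation on live cells; HMU-β-gal 0.1 mM final, pH 5.2, NaTC; carbonate stop; fluorescence increase = enhanced residual activity.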
Further: 0% is about no effect; nearly all actives have a fitted effect of over 65% in size.

Sequence of UniProt P54803 (P54803 whole entry, looked up): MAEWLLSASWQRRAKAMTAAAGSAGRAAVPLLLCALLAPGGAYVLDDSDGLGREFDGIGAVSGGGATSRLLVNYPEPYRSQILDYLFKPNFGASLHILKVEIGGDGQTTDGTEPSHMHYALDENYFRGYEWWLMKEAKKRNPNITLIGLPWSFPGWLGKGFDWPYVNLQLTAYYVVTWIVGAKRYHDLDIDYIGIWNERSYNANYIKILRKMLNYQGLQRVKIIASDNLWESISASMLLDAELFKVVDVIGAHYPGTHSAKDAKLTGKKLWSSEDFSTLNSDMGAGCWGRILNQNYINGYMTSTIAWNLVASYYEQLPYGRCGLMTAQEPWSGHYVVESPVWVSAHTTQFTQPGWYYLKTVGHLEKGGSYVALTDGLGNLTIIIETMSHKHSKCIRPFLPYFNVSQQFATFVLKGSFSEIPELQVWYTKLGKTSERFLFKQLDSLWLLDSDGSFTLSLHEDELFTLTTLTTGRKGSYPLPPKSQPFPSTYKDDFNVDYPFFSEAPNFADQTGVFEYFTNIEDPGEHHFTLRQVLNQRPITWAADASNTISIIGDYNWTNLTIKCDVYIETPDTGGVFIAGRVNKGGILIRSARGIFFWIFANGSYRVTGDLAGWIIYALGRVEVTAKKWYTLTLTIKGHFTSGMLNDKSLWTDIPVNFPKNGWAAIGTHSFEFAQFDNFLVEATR

activation, inactive:
CCn1c(=O)n(CC)c2cc(N3CCCCC3)c(NC(=O)Nc3cc(Cl)ccc3OC)cc21 -11.7%
CCOC(=O)c1c(C)[nH]c(CCC(=O)Nc2ccccc2C(=O)OC)c1C -11.2%
CC(C)C(=O)Nc1ccc2nc(SCCOc3ccccc3)sc2c1 -16.8%
COc1ccc(-n2c(-c3ccco3)nc3c(cnn3-c3ccc(C)cc3)c2=O)cc1 -8.23%
COCCCNC(=O)CCc1c(C)nc2cc(-c3ccc(Cl)cc3)nn2c1C -22.1%
CC(C)Cn1c(/C=C/c2ccc(F)cc2)nc2ccccc21 -3.54%
O=C(c1cccs1)N1CCCc2cc(NS(=O)(=O)c3ccc(F)cc3)ccc21 -35.8%
COc1ccccc1NC(=O)C1=C(C)Nc2nc(SCc3cc(C)ccc3C)nn2C1c1ccccc1 (stereo not given) -13.3%
CCOc1ccc(C(=O)N2CCN(Cc3cc(=O)n4nc(-c5ccccc5Cl)sc4n3)CC2)cc1 3.01%
CCOC(=O)[C@H](CCc1ccccc1)N[C@@H](C)C(=O)N(CC(=O)O)C1Cc2ccccc2C1 -16.5%
O=C(Nc1ccc2nn(-c3ccccc3)nc2c1)c1ccc(-c2cccc(Cl)c2)o1 -13%
CCOc1ccc(NS(=O)(=O)c2ccc(NC(=O)N3CCCC3)cc2)cc1 -13.5%
O=C(CSc1nnc(CNC(=O)c2c(F)cccc2Cl)o1)Nc1cccc(F)c1 -9.32%
CCn1c(C)c(C)c2cc(C(=O)NCCc3ccc(C)cc3)ccc21 -6.36%
O=C(c1ccc2c(=O)n(CCc3ccccc3)c(=O)[nH]c2c1)N1CCN(c2ccc(Cl)cc2)CC1 0.179%
CC[C@H](C)C(=O)O[C@H]1C[C@@H](C)C=C2C=C[C@H](C)[C@H](CC[C@@H]3C[C@@H](O)CC(=O)O3)[C@H]21 -5.57%
Cc1ccc(C)c(NC2=C(c3ccc(C(F)(F)F)cc3)C(=O)c3ccccc32)c1 -19.5%
COc1ccccc1C(=O)NCCc1csc(-c2ccc(C(F)(F)F)cc2)n1 -12.1%
COc1cc(NC(=O)Cn2c(=O)n(CC3CCCO3)c(=O)c3cc(OC)c(OC)cc32)cc(OC)c1 (stereo not given) -6.14%
CCc1ccc(C2CC(=O)N(c3cccc(C(F)(F)F)c3)C3=C2C(=O)OC3)cc1 (stereo not given) 0.314%
CCOCCc1nn2c(=O)cc(COC(=O)c3ccc(NC(=O)c4ccc(F)cc4)cc3)nc2s1 5.69%
Cc1cccc(Cn2nnc3c(=O)[nH]c(C4CCCN(C(=O)c5ccc(C(C)(C)C)cc5)C4)nc32)c1 (stereo not given) -16.7%
Clc1ccc(C(Cn2ccnc2)OCc2ccc(Sc3ccccc3)cc2)c(Cl)c1 (stereo not given) -7.43%
COc1ccc2c(CNC3CCC(C)CC3)c(C(=O)O)n(Cc3ccccc3)c2c1 (stereo not given) -0.683%
CC(=O)N1CCc2cc(CNC(=O)Nc3ccccc3C(F)(F)F)ccc21 4.35%
CN(C)S(=O)(=O)N(CC(=O)NCCSc1ccc(Cl)cc1)c1ccccc1 -5.08%
CCC(C(=O)Nc1cc(OC)ccc1OC)n1nc(-c2ccccc2)c2c(c1=O)CCCC2 (stereo not given) 9.34%
Cn1c2ccccc2c2c(C(=O)N3CCN(c4cccc(C(F)(F)F)c4)CC3)cn(C3CCCCC3)c(=O)c21 -20%
CCOc1ccccc1CNC(=O)C1CCN(Cc2cc3ccccc3n2Cc2ccccc2)CC1 -10.7%
Cc1ccc(-c2cn3nc(N4CCC(C(=O)Nc5ccccc5C)CC4)sc3n2)cc1 -2.8%
CCCS(=O)(=O)c1nc(S(=O)(=O)c2ccc(C)cc2)c(NC(C)c2ccccc2)s1 (stereo not given) 23.6%
CN1C(C(=O)NC(C)(C)C)=CC(c2ccc3c(c2)OCO3)=NS1(=O)=O -19.3%
COc1cccc(NS(=O)(=O)c2ccc3[nH]cc(C(=O)NCCc4ccc(C)cc4)c(=O)c3c2)c1 1.96%
Cc1ccc(-n2ccnc(NCc3cccs3)c2=O)cc1C -8.41%
Cc1cccc(Cn2c(SCc3ccc(C(=O)NCc4ccccc4F)cc3)nc3cccnc32)c1 -5.42%
Cc1cc(C)c2oc(C(=O)Nc3nc4ccc(Cl)cc4s3)cc(=O)c2c1 -14.9%
COc1cc2nc(NC(=O)c3ccc(S(=O)(=O)N4CCCC4)cc3)sc2cc1OC -10.7%
O=C(COCc1cc(-c2ccc3c(c2)OCO3)on1)N1CCN(c2cccc(C(F)(F)F)c2)CC1 -18.3%
CCC(=O)N1CCc2cc(S(=O)(=O)NCCC(=O)Nc3cccc(SC)c3)ccc21 -12.3%
O=C(COc1ccccc1F)Nc1ccc2nc(SCc3ccccc3)sc2c1 -1.51%
COc1ccc2oc(=O)c(-c3nc4ccc(C)cc4[nH]3)cc2c1 -13.3%
COc1ccc(Br)cc1CC1C(=O)Nc2ccccc21 (stereo not given) -41.2%
Cc1ccc(-n2ncc(C(=O)N3CCN(c4cccc(C)c4C)CC3)c2C2CCNCC2)c(C)c1 -19.2%
CCOC(=O)c1cc(-c2ccc(F)cc2)n(CCC(=O)NCc2ccc(C)cc2)c1C -5.85%
Cc1ccc2c(c1)sc1nc(=O)n(-c3cccc(Cl)c3)c(=O)n12 -9.03%
Cc1ccc(NC(=O)CN2CCN(C3CCCCC3)C(=O)C2=O)cc1C -15.3%
CCCN1C(C(=O)c2ccccc2)=C(OC(=O)C(C)(C)C)c2ccccc2S1(=O)=O -8.9%
CN(C(=O)NCc1noc2ccccc12)c1cccc(Cl)c1 -10.4%
COc1ccccc1NC(=O)C1=C(C)Nc2nc(SCc3ccccc3Cl)nn2C1c1cccnc1 (stereo not given) -0.455%
O=C(Cn1ncc2c3ccccc3n(Cc3cccc(Cl)c3)c2c1=O)N1CCCCC1 -15.4%
COc1ccc(CN2C(=O)c3ccccc3C2C(=O)NC2CCCCCC2)c(OC)c1 (stereo not given) -13.5%
CCOC(=O)C1CCN(C(=O)Cn2nc(CC)n3c(cc4occc43)c2=O)CC1 -17.4%
CCCCc1nn2c(C)c(-c3ccc(OCC)cc3)nc2s1 -35%
Cc1ccc(-n2c(=O)[nH]c3sc4c(c3c2=O)CCNC4)cc1C -19.9%
Cc1cc(Cl)ccc1NS(=O)(=O)c1cc2[nH]c(=O)c(=O)[nH]c2cc1C 4.98%
CCCCc1nn2c(=O)cc(COC(=O)c3ccc(NC(=O)c4cccc(OC)c4)cc3)nc2s1 -14.5%
CCCN1CCN(CC2=C(C(=O)OCC)C(c3cccc(OC)c3OC)NC(=O)N2)CC1 (stereo not given) 20.5%
COc1ccc(CN2CCN(c3ncnc4sc5c(c34)CCCC5)CC2)cc1F -12.8%
Cc1ccc(NC(=O)N2CCc3c(sc4c3CCCC4)C2c2ccccc2)cc1F (stereo not given) -10.8%
CSc1ncc(C(=O)NCc2ccccc2Cl)c(C(F)(F)F)n1 -7.25%
